# In the supplement of paper PMC8728848:
# Some of the results follow.
# B1: F17aG (Escherichia coli), Q99003 (protein)
# chain: MTNFYKVFLAVFILVCCNISQAAVSFIGSTENDVGPSLGSYSRTHAMDNLPFVYDTRNKIGYQNANVWHISKGFCVGLDGKVDLPVVGSLDGQSIYGLTEEVGLLIWMGDTKYSRGTAMSGNSWENVFSGWCVGANTASTQGLSVRVTPVILKRNSSARYSVQKTSIGSIRMRPYNGSSAGSVQTTVNFSLNPFTLNDTVTSCRLLTPSAVNVSLAAISAGQLPSSGDEVVAGTTSLKLQCDAGVTVWATLTDATTPSNRSDILTLTGASTATGVGLRIYKNTDSTPLKFGPDSPVKGNENQWQLSTGTETSPSVRLYVKYVNTGEGINPGTVNGISTFTFSYQ
# Key:
# Assay in all cases: glycan array binding signal (z-score within array); higher = stronger binding
# Details in all cases: glycan notation: IUPAC condensed, linker removed
# [1] = molecular target: GlcNAc(b1-4)GlcNAc(b1-4)GlcNAc(b1-4)GlcNAc(b1-4)GlcNAc(b1-4)GlcNAc
# Method in brief: (§1)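 Arrays were curated from the Consortium for Functional Glycomics database, 3228 in total, and kept only where the protein sequence was available. Binding is expressed as a within-array Z-score. This score was averaged across arrays of the same protein sequence at different concentrations or buffers and across linkers, and negative values can be read as non-binding.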
# [2] = molecular target: GlcNAc(b1-4)[GlcNAc(b1-6)]GalNAc
# Method in brief: as §1
# [3] = molecular target: GlcNAc(b1-6)Gal(b1-4)GlcNAc
# Method in brief: as §1
# GlcNAc(b1-6)GalNAc = molecular target: GlcNAc(b1-6)GalNAc
# Method in brief: as §1
# GlcNAc3Prop(b1-4)GlcNAc = molecular target: GlcNAc3Prop(b1-4)GlcNAc
# Method in brief: as §1
# [4] = molecular target: GlcNAc6S(b1-3)Gal(b1-4)GlcNAc
# Method in brief: as §1
# Kdn(a2-3)Gal(b1-3)GalNAc = molecular target: Kdn(a2-3)Gal(b1-3)GalNAc
# Method in brief: as §1
# Kdn(a2-3)Gal(b1-3)GlcNAc = molecular target: Kdn(a2-3)Gal(b1-3)GlcNAc
# Method in brief: as §1
# Kdn(a2-3)Gal(b1-4)Glc = molecular target: Kdn(a2-3)Gal(b1-4)Glc
# Method in brief: as §1
# Kdn(a2-3)Gal(b1-4)GlcNAc = molecular target: Kdn(a2-3)Gal(b1-4)GlcNAc
# Method in brief: as §1
# [5] = molecular target: Kdn(a2-3)Gal(b1-4)[Fuc(a1-3)]GlcNAc
# Method in brief: as §1
# Kdn(a2-6)Gal(b1-4)GlcNAc = molecular target: Kdn(a2-6)Gal(b1-4)GlcNAc
# Method in brief: as §1
# [6] = molecular target: Man(a1-2)Man(a1-2)Man(a1-3)Man
# Method in brief: as §1
# [7] = molecular target: Man(a1-2)Man(a1-2)Man(a1-6)[Man(a1-3)]Man
# Method in brief: as §1
# Man(a1-2)Man(a1-3)Man = molecular target: Man(a1-2)Man(a1-3)Man
# Method in brief: as §1
# [8] = molecular target: Man(a1-2)Man(a1-3)[Man(a1-2)Man(a1-6)]Man
# Method in brief: as §1
# [9] = molecular target: Man(a1-2)Man(a1-3)[Man(a1-2)Man(a1-6)]Man(a1-6)[Man(a1-2)Man(a1-2)Man(a1-3)]Man
# Method in brief: as §1
# [10] = molecular target: Man(a1-2)Man(a1-3)[Man(a1-2)Man(a1-6)]Man(a1-6)[Man(a1-2)Man(a1-2)Man(a1-3)]Man(b1-4)GlcNAc(b1-4)GlcNAc
# Method in brief: as §1
# [11] = molecular target: Man(a1-2)Man(a1-3)[Man(a1-6)]Man(a1-6)[Man(a1-2)Man(a1-3)]Man(b1-4)GlcNAc(b1-4)GlcNAc
# Method in brief: as §1
# [12] = molecular target: Man(a1-2)Man(a1-6)[Man(a1-3)]Man(a1-6)[Man(a1-2)Man(a1-2)Man(a1-3)]Man
# Method in brief: as §1
# [13] = molecular target: Man(a1-2)Man(a1-6)[Man(a1-3)]Man(a1-6)[Man(a1-2)Man(a1-2)Man(a1-3)]Man(b1-4)GlcNAc(b1-4)GlcNAc
# Method in brief: as §1
# Man(a1-3)[Man(a1-6)]Man = molecular target: Man(a1-3)[Man(a1-6)]Man
# Method in brief: as §1
# [14] = molecular target: Man(a1-3)[Man(a1-6)]Man(a1-6)[Man(a1-2)Man(a1-3)]Man(b1-4)GlcNAc(b1-4)GlcNAc
# Method in brief: as §1
# [15] = molecular target: Man(a1-3)[Man(a1-6)]Man(a1-6)[Man(a1-3)]Man
# Method in brief: as §1
# [16] = molecular target: Man(a1-3)[Man(a1-6)]Man(a1-6)[Man(a1-3)]Man(b1-4)GlcNAc(b1-4)GlcNAc
# Method in brief: as §1
# [17] = molecular target: Man(a1-3)[Man(a1-6)]Man(b1-4)GlcNAc(b1-4)GlcNAc
# Method in brief: as §1
# Man(a1-6)Man = molecular target: Man(a1-6)Man
# Method in brief: as §1
# Man(b1-4)GlcNAc = molecular target: Man(b1-4)GlcNAc
# Method in brief: as §1
# Neu5Ac(a2-3)Gal = molecular target: Neu5Ac(a2-3)Gal
# Method in brief: as §1
# [18] = molecular target: Neu5Ac(a2-3)Gal(b1-3)GalNAc
# Method in brief: as §1
# [19] = molecular target: Neu5Ac(a2-3)Gal(b1-3)GalNAc(b1-3)Gal(a1-4)Gal(b1-4)Glc
# Method in brief: as §1
# [20] = molecular target: Neu5Ac(a2-3)Gal(b1-3)GalNAc(b1-3)Gal(b1-4)GlcNAc
# Method in brief: as §1
# [21] = molecular target: Neu5Ac(a2-3)Gal(b1-3)GalNAc(b1-4)[Neu5Ac(a2-3)]Gal(b1-4)Glc
# Method in brief: as §1
# [22] = molecular target: Neu5Ac(a2-3)Gal(b1-3)GalNAc(b1-4)[Neu5Ac(a2-8)Neu5Ac(a2-3)]Gal(b1-4)Glc
# Method in brief: as §1
# [23] = molecular target: Neu5Ac(a2-3)Gal(b1-3)GalNAc6S
# Method in brief: as §1
# [24] = molecular target: Neu5Ac(a2-3)Gal(b1-3)GlcNAc
# Method in brief: as §1
# [25] = molecular target: Neu5Ac(a2-3)Gal(b1-3)GlcNAc(b1-3)Gal(b1-3)GlcNAc
# Method in brief: as §1
binder,measurement,setting,value
B1,glycan array binding signal (z-score),[1],-0.069
same,glycan array binding signal (z-score),[2],0.015
same,glycan array binding signal (z-score),[3],0.342
same,glycan array binding signal (z-score),GlcNAc(b1-6)GalNAc,0.507
same,glycan array binding signal (z-score),GlcNAc3Prop(b1-4)GlcNAc,11.7
same,glycan array binding signal (z-score),[4],-0.17
same,glycan array binding signal (z-score),Kdn(a2-3)Gal(b1-3)GalNAc,-0.169
same,glycan array binding signal (z-score),Kdn(a2-3)Gal(b1-3)GlcNAc,-0.246
same,glycan array binding signal (z-score),Kdn(a2-3)Gal(b1-4)Glc,-0.177
same,glycan array binding signal (z-score),Kdn(a2-3)Gal(b1-4)GlcNAc,-0.249
same,glycan array binding signal (z-score),[5],-0.154
same,glycan array binding signal (z-score),Kdn(a2-6)Gal(b1-4)GlcNAc,-0.152
same,glycan array binding signal (z-score),[6],-0.211
same,glycan array binding signal (z-score),[7],-0.257
same,glycan array binding signal (z-score),Man(a1-2)Man(a1-3)Man,-0.24
same,glycan array binding signal (z-score),[8],-0.114
same,glycan array binding signal (z-score),[9],-0.064
same,glycan array binding signal (z-score),[10],-0.03
same,glycan array binding signal (z-score),[11],-0.24
same,glycan array binding signal (z-score),[12],-0.157
same,glycan array binding signal (z-score),[13],-0.238
same,glycan array binding signal (z-score),Man(a1-3)[Man(a1-6)]Man,0.234
same,glycan array binding signal (z-score),[14],-0.172
same,glycan array binding signal (z-score),[15],-0.174
same,glycan array binding signal (z-score),[16],-0.176
same,glycan array binding signal (z-score),[17],-0.202
same,glycan array binding signal (z-score),Man(a1-6)Man,-0.158
same,glycan array binding signal (z-score),Man(b1-4)GlcNAc,-0.032
same,glycan array binding signal (z-score),Neu5Ac(a2-3)Gal,-0.245
same,glycan array binding signal (z-score),[18],-0.191
same,glycan array binding signal (z-score),[19],-0.238
same,glycan array binding signal (z-score),[20],-0.344
same,glycan array binding signal (z-score),[21],-0.251
same,glycan array binding signal (z-score),[22],-0.195
same,glycan array binding signal (z-score),[23],-0.219
same,glycan array binding signal (z-score),[24],-0.207
same,glycan array binding signal (z-score),[25],-0.155
